Hit rate of the full screen: of about 45,000 compounds, about 65 (0.1%) were called active. The call rests on the fitted dose curve; in most records, active means well fitted activation curve with a large enough effect; inconclusive means small, poorly fitted or top-dose-only effect; inactive means no such curve, though single readings can be large or run the other way. The list shows a part of the results.

UniProt P54803, sequence (P54803 whole entry, looked up): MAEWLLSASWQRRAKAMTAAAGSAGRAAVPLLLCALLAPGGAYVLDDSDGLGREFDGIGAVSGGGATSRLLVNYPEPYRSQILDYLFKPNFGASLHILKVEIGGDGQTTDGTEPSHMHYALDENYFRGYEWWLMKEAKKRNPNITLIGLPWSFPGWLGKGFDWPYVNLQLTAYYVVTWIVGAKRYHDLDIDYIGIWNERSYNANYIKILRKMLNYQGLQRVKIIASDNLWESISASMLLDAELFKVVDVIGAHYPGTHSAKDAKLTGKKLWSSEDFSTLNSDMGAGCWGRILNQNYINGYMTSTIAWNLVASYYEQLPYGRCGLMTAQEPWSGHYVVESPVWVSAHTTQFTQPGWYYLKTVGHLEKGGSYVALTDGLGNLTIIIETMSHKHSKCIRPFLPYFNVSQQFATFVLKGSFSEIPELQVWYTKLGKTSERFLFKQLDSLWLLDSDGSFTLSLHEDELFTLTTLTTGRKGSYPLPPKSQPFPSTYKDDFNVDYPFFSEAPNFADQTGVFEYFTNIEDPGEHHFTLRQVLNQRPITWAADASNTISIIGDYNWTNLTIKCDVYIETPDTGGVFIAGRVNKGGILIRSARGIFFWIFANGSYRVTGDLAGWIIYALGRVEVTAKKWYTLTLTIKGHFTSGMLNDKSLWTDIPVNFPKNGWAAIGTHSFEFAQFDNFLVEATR

For the experiment, the target named is Galactocerebrosidase (Homo sapiens) (UniProt P54803). The experiment can be described thus: A Novel Cell-Based Assay to Identify Small Molecules for B -Galactocerebrosidase. Further: 0% is about no effect; nearly all actives have a fitted effect of over 65% in size. The conditions noted are these: 145M-Twi-hGALC-G270D cells (Twitcher mouse brain line with human GALC G270D), HMU-beta-Gal fluorescence, 48 h; series mostly up to 57.5 µM; activation: at the top concentration. Put shortly:
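Mutant human GALC (G270D), stably expressed in a Twitcher mouse brain cell line lacking endogenous GALC, is measured in live-treated cells via 6-hexadecanoylamino-4-methylumbelliferyl-β-galactoside hydrolysis (0.1 mM final, pH 5.2) with fluorescent detection.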
For the compound `CCc1ccc(NC(=O)Cn2c(=O)n(CCC(C)C)c(=O)c3cccnc32)cc1`, the “activation” value was inactive: -18.8%. Turning to `O=C(OCc1ccccc1)c1ccc(O)cc1`, the “activation” value was inactive: -17.3%. On to `CCOC(=O)N1CCc2c(sc3c2C(=O)NC(c2cc(OC)c(OC)c(OC)c2)N3)C1` (stereo not given), for which the “activation” value is inactive: -13.4%. Regarding `COc1ccccc1NC(=O)c1c(NCc2ccc(C)o2)sc2c1CCCCC2`, the “activation” value was inactive: -17%. On to `CCCCSc1nnc2n(-c3ccc(OC)cc3)c(=O)c3c4c(sc3n12)COC(C(C)C)C4` (stereo not given), for which the “activation” value is inactive: -23.8%. Consider `Cc1ccc(/C=C/c2onc(C)c2S(=O)(=O)N2CCC(C(=O)Nc3ccccc3C(F)(F)F)CC2)cc1`, for which the “activation” value is inactive: -0.487%. As for `CC(=O)c1ccc(N2CCN(c3ncnc4c3c(-c3ccccc3)cn4-c3ccc(Cl)cc3)CC2)cc1`, the “activation” value was inactive: -6.43%.

With `COc1ccc(-n2c(=O)c3c(c4cc(OC)ccc4n3C)n(Cc3cccc(C)c3)c2=O)cc1`, the “activation” value is inactive: 3.74%. As to `COc1ccc2c(c1)c(=O)c(S(=O)(=O)c1ccccc1)cn2CC(=O)Nc1ccc(C)c(Cl)c1`, the “activation” value was inactive: 2.42%.

As for `COc1cccc(CNC(=O)Cn2nc(-c3ccc(Cl)cc3)ccc2=O)c1`, the “activation” value is inactive: -22.6%. As to `CC(=O)c1ccc(NC(=O)c2cc(C)nc3c2c(C)nn3-c2ccc(C)cc2)cc1`, the “activation” value is inactive: -11.3%. Take `Cc1cccc2c1N(Cc1ccccc1OCCC(C)C)C(=O)C2=O`: the “activation” value was inactive: -0.773%. Next, `CNC(=O)CSc1cn(CC(=O)N2CCCCCC2)c2ccccc12`: inactive: 3.15%. `CC1=C(C(=O)Nc2ccc(C)cc2C)C(c2cccs2)n2nc(SCc3cccc(C)c3)nc2N1` (stereo not given): the “activation” value was inactive: 10.2%.

Turning to `COc1ccc(-n2cc(C(=O)NCCc3cc(OC)ccc3OC)c3ccccc3c2=O)cc1`, the “activation” value was inactive: 6.91%.

Turning to `CCC(C(=O)Nc1cccc(-c2nc3cccnc3s2)c1C)c1ccccc1` (stereo not given), the “activation” value was inactive: 2.97%. For `CC(C)CC(=O)Nc1nnc(S(=O)(=O)N(C)Cc2ccc(Cl)cc2)s1`, the “activation” value was inactive: -7.2%. As for `CCOC(=O)c1c(C)[nH]c(C)c1S(=O)(=O)N1CCCC(C(=O)NCc2ccc(N(C)C)cc2)C1` (stereo not given), the “activation” value was inactive: -8.54%.

On to `O=C(CCOc1ccccc1)N(Cc1cccnc1)c1nc2ccc(Cl)cc2s1`, for which the “activation” value is inactive: -23.6%. On to `CCOc1ccc(NC(=O)CSc2oc(-c3ccc(F)cc3)nc2S(=O)(=O)c2ccc(C)cc2)cc1`, for which the “activation” value was inactive: 1.52%. On to `CC(=O)CCC(=O)O`, for which the “activation” value was inactive: -11.5%. Consider `COc1ccc(OC)c(NC(=O)CN2C(=O)CC(C)Sc3ccccc32)c1` (stereo not given), for which the “activation” value was inactive: -3.21%. `Cc1ccc(-n2c(=O)c3c4c(sc3n(Cc3cc(=O)n5ccccc5n3)c2=O)CCC4)cc1C`: the “activation” value was inactive: -17.3%. As to `COc1ccc(CNC(=O)Cn2ccc3cc(S(=O)(=O)N4CCCCC4)ccc32)cc1OC`, the “activation” value was inactive: -3.52%. Take `Cc1ccc(CN(Cc2ccco2)C(=O)c2oc3cc(Br)ccc3c2C)cc1`: the “activation” value was inactive: -11.4%. With `Cc1nc2nc(NC(=O)c3ccc(C(C)(C)C)cc3)[nH]n2c(=O)c1Cc1ccccc1`, the “activation” value is inactive: -20.8%. For `O=C(Nc1ccc(Br)cc1F)c1cc(S(=O)(=O)NC2CCCCC2)ccc1F`, the “activation” value is inactive: -17.3%. For the compound `CCOC(=O)c1ccc(NC(=O)CSc2nc3cc4ccccc4cc3[nH]2)cc1`, the “activation” value was inactive: -29.1%.

On to `O=C1N(Cc2ccccc2Cl)c2ccccc2C1(O)c1c[nH]c2ccccc12` (stereo not given), for which the “activation” value was inactive: -17.9%.

As to `CC1=C(C(=O)OCC2CCCCC2)C(c2ccc(Cl)cc2)CC(=O)N1` (stereo not given), the “activation” value is inactive: -1.56%. On to `COc1cc(CN2CCN(S(=O)(=O)c3ccc(NC(C)=O)cc3)CC2)cc(OC)c1OC`, for which the “activation” value was inactive: -16.3%. As for `C/C=C(/C(=C/C)c1ccc(OC(C)=O)cc1)c1ccc(OC(C)=O)cc1`, the “activation” value is inactive: -13.1%. With `COc1ccc(Cl)cc1NC(=O)N(C)CCc1c(C)nn(C)c1C`, the “activation” value was inactive: -5.85%. For the compound `COc1ccccc1NC(=O)c1oc2ccccc2c1NC(=O)COc1cccc(C)c1`, the “activation” value was inactive: -17.8%.

Take `Cc1ccc2oc(-c3ccc(C)c(NC(=O)C(C)(C)Oc4ccc(Cl)cc4)c3)nc2c1`: the “activation” value is inactive: -24.7%. On to `CCn1cc(C(=O)NCCc2ccc(OC)c(OC)c2)c(=O)c2cc(S(=O)(=O)N3CCCCCC3)ccc21`, for which the “activation” value is inactive: -7.82%.

For `Cc1cccc(Cn2c(=O)n(Cc3ccccc3)c(=O)c3c2c2cc(C)ccc2n3C)c1`, the “activation” value was inactive: -11.6%. For `CC(=O)c1ccc(NS(=O)(=O)c2c(C)nc3scc(C)n3c2=O)cc1`, the “activation” value was inactive: -25.7%. With `CCOC(=O)c1sc2ccccc2c1S(=O)(=O)Nc1ccc(C(C)=O)cc1`, the “activation” value was inactive: -7.55%. `CCc1ccc(N(CC)C(=O)Cn2nc(Cc3cccnc3)c3ccccc3c2=O)cc1`: the “activation” value is inactive: -1.06%.

Consider `CSc1ncc(C(=O)Nc2ccc(C)c(Cl)c2)c(-c2ccccc2)n1`, for which the “activation” value was inactive: 6.11%. Regarding `Cc1sc2ncn(CC(=O)Nc3ccc(C(C)C)cc3)c(=O)c2c1S(=O)(=O)N1CCN(c2ncccn2)CC1`, the “activation” value is inactive: -13%. As for `COc1ccc(S(=O)(=O)Nc2ccc3oc4c(c3c2)CCCC4)cc1`, the “activation” value was inactive: -16.5%. `COc1ccc2c(c1)sc1ncc(C(=O)NCc3ccccc3F)c(=O)n12`: the “activation” value was inactive: -15.7%. Take `Cc1ccc(S(=O)(=O)c2nnn3c2nc(NC(C)C)c2cc(Cl)ccc23)cc1C`: the “activation” value is inactive: -13.6%.

Turning to `CC1(C)N=C(SCc2ccccc2Cl)c2ccccc2N1`, the “activation” value is inactive: -6.65%. Take `CCCCNC(=O)CSc1nc2n[nH]c(C)c2c(=N)n1-c1cccc(Cl)c1C`: the “activation” value is inactive: -9.8%.

For `Cc1cccc(-c2noc(-c3cccnc3NCc3ccc(Cl)cc3)n2)c1`, the “activation” value is inactive: -9.28%. As to `O=C(c1cccc(Cl)c1)N1c2nc(-c3ccco3)nn2C2(CCCCC2)[C@@H]2CCCC[C@@H]21`, the “activation” value is inactive: -15.4%. Take `CCOc1ccc(NS(=O)(=O)c2ccc(C(=O)N(C)C)s2)cc1`: the “activation” value was inactive: -14.7%. As to `C#CCn1c(=NC(=O)c2ccc3c(c2)OCCO3)sc2cc(OC)c(OC)cc21`, the “activation” value is inactive: -20%. Turning to `COc1ccc(CCNC(=O)CCCCn2c(=O)c3ccccc3n(CC(=O)Nc3c(C)cccc3C)c2=O)cc1OC`, the “activation” value is inactive: -9.25%. Take `O=C(CCSCc1cccc(Cl)c1)N1CCN(c2ccc(Cl)cc2)CC1`: the “activation” value is inactive: -9.08%. Turning to `COc1cccc(NC(=O)CC(=O)Nc2ccc3nc4n(c(=O)c3c2)CCCCC4)c1`, the “activation” value was inactive: -10.4%. The same measure for `Cc1nc2ccc(S(=O)(=O)CCC(=O)Nc3ccc(Cl)cc3)cc2s1`: inactive: -9.49%; for `COC(=O)c1scc(-c2ccc(C)cc2)c1S(=O)(=O)N1CCN(c2ccccc2)CC1`: inactive: -14.1%; for `CCOC(=O)c1c(C)[nH]c(C)c1S(=O)(=O)NCC(=O)Nc1cccc(C#N)c1`: inactive: 2.7%. Next, `COc1ccc(S(=O)(=O)N2CCC(C(=O)Nc3ccccc3)CC2)cc1OC`: inactive: -7.17%.

For the compound `COc1cc(OC)cc(N2C(=O)N(Cc3ccc(C(C)(C)C)cc3)c3ccccc3S2(=O)=O)c1`, the “activation” value was inactive: -10.7%. On to `CCOC(=O)N1CCN(C(=O)CN(c2ccccc2F)S(=O)(=O)c2ccc(C)cc2)CC1`, for which the “activation” value is inactive: 1.05%. Regarding `Cc1ccc(Cn2cc(S(=O)(=O)c3cccc(Cl)c3)c(=O)c3cc(F)c(N4CCCCC4)cc32)cc1`, the “activation” value is inactive: 1.26%.

On to `Nc1c(C(=O)Nc2ccccc2Cl)c2ccccn2c1C(=O)c1ccccc1`, for which the “activation” value was inactive: -12.8%.

`CCOc1ccc(NC(=O)c2c(NCc3cccc(OC)c3OC)sc3c2CCC3)cc1`: the “activation” value is inactive: -5.92%. Turning to `CCc1ccc(NC(=O)CN(c2ccc(Cl)cc2)S(=O)(=O)c2ccsc2C(=O)OC)cc1`, the “activation” value is inactive: -30.9%. For the compound `O=C(C1CCCN(S(=O)(=O)c2cccc3nsnc23)C1)N1CCN(c2ccccc2)CC1` (stereo not given), the “activation” value was inactive: -21.8%. Consider `O=C1NCN(c2ccccc2)C12CCN(CCCC(c1ccc(F)cc1)c1ccc(F)cc1)CC2`, for which the “activation” value was inactive: -4.52%. As to `COc1ccc(OC)c(CNC(=O)c2ccc3c(c2)c(C)c(C)n3Cc2ccc(Cl)cc2)c1`, the “activation” value is inactive: -5.87%. Next, `Cc1ccc(C)c(CN2C(=O)C(O)(c3c(C)[nH]c4ccccc34)c3ccccc32)c1` (stereo not given): inactive: -27.6%; `O=C(NCc1cccs1)c1ccc2c(c1)N(Cc1cccc(F)c1)C(=O)c1ccccc1S2`: inactive: -17.8%; `CCOC(=O)c1noc2nc(C)n(CC(=O)NC(C)CC)c(=O)c12` (stereo not given): inactive: -27.8%. Regarding `Cc1cc(C)cc(NC(=O)CSc2nc(=O)n(CCN3CCOCC3)c3c2CCC3)c1`, the “activation” value was inactive: -5.85%. For `COC(=O)c1c(NC(=O)Cc2coc3cc(C)ccc23)sc2c1CCC2`, the “activation” value was inactive: -3.7%. Consider `Cc1ccc(Cl)cc1NC(=O)CSc1nccn1C`, for which the “activation” value was inactive: -3.03%. As for `CCCCN(CC)C(=O)c1nn(C)c2c1CSc1ccccc1-2`, the “activation” value was inactive: -10.4%.

In the case of `Cc1oc(-c2cccc(Cl)c2)nc1CS(=O)(=O)CC(=O)NC(C)CCc1ccccc1` (stereo not given), the “activation” value was inactive: 11.9%. For `CC(=O)c1cccc(NC(=O)CSc2nc(=O)n(Cc3ccco3)c3c2CCC3)c1`, the “activation” value was inactive: -3.79%. Consider `CCOc1ccccc1CNC(=O)c1ccc2c(c1)N(Cc1ccc(C)cc1)CCS2`, for which the “activation” value is inactive: -39%. Next, `COc1ccc(Cl)cc1NC(=O)C(C)Sc1nc2c(c(=O)[nH]1)CCCC2` (stereo not given): inactive: 5.09%; `CC1(C)O[C@H]2[C@@H](O1)[C@@H](C(=O)Nc1ccccc1C(F)(F)F)O[C@@H]1OC(C)(C)O[C@@H]12`: inactive: -12.7%; `COc1ccc(-n2c(-c3ccco3)nc3c(cnn3-c3ccc(Cl)cc3)c2=O)cc1`: inactive: 4.08%. As to `O=C(NCCc1ccccc1Cl)C1CCN(c2nc3ccccc3nc2C(F)(F)F)CC1`, the “activation” value is inactive: 6.72%. Take `Cc1ccc(NC(=O)C2CCCN(C(=O)c3cnn(-c4ccc(F)cc4)c3-n3cccc3)C2)c(Cl)c1` (stereo not given): the “activation” value is inactive: -31.5%.

Take `Cc1ccccc1CNC(=O)C(C)N(c1ccccc1)S(C)(=O)=O` (stereo not given): the “activation” value was inactive: -6.51%. As to `O=C(CSc1ccc(-c2cccs2)nn1)Nc1ccccc1C(F)(F)F`, the “activation” value is inactive: -6.57%. `O=C(CCC1N=C2c3ccccc3N=C(SCc3ccc(F)cc3)N2C1=O)NCCc1ccccc1` (stereo not given): the “activation” value is inactive: -23.3%. With `CCOc1ccc(/C=C/c2nc(C#N)c(NCc3ccccc3)o2)cc1`, the “activation” value was inactive: -13.9%. The same measure for `Cc1cccn2c(=O)c(C(=O)NC(C)c3ccccc3)cnc12` (stereo not given): inactive: -3.71%; for `Cc1ccc(OCc2nc(-c3ccc(C(=O)NCc4ccc(OC(C)C)cc4)cc3)oc2C)cc1`: inactive: -16.2%.

For the compound `CCN(C(=O)c1cc2c(=O)oc3ccc(C)cc3c2s1)c1ccccc1C`, the “activation” value is inactive: -11.4%. Next, `CCN(CC)S(=O)(=O)c1ccc2nc(NC(=O)c3cncc(Br)c3)sc2c1`: inactive: -13.8%. `Cc1ccc(C(=O)c2cn(Cc3ccc(Cl)cc3)c3nc(C)ccc3c2=O)cc1`: the “activation” value was inactive: -14.5%. Regarding `COc1ccc(N2CCN(C(=O)CSc3n[nH]c(-c4ccccc4Cl)n3)CC2)cc1`, the “activation” value was inactive: -8.06%.

Regarding `Cc1cc(C)cc(N2C(=O)N(Cc3cccc(F)c3)c3ccccc3S2(=O)=O)c1`, the “activation” value is inactive: -11.4%. In the case of `COc1ccc(Nc2oc(-c3ccc(COc4ccccc4C)o3)nc2C#N)cc1`, the “activation” value is inactive: -10.6%. `Cc1ccc(C)c(CN2C(=O)c3ccccc3S(=O)(=O)c3ccc(C(=O)NCCC4=CCCCC4)cc32)c1`: the “activation” value is inactive: -11.3%.

Source of the values: PubChem BioAssay AID1159614 (National Center for Advancing Translational Sciences (NCATS), 2016).
